# According to the antibiotic and cytotoxicity screens of Wong et al. (2023):
# Some of the results follow.
# Tested on: S. aureus RN4220
# Experiment: growth inhibition call (relative growth <= 0.2)
# Conditions: 50 µM
row,Structure (SMILES),growth inhibition call
1,O=C(O)CCNC(=O)c1ccccc1,inactive
2,C[C@H]1CN([C@@H](C)CO)C(=O)c2cccc(NC(=O)Nc3cccc4ccccc34)c2O[C@H]1CN(C)C(=O)NC1CCCCC1,inactive
3,COc1ccc(CN(C)C[C@H]2Oc3ccc(NS(=O)(=O)c4c(C)noc4C)cc3C(=O)N([C@@H](C)CO)C[C@@H]2C)cc1,inactive
4,C[C@H](CO)N1C[C@H](C)[C@H](CN(C)Cc2ccc3c(c2)OCO3)OCCCC[C@H](C)Oc2ccc(NC(=O)Nc3ccc4c(c3)OCO4)cc2C1=O,inactive
5,Cc1cc(C(=O)Nc2cccc3c2O[C@H](CN(C)C(=O)Nc2ccc4c(c2)OCO4)[C@@H](C)CN([C@@H](C)CO)C3=O)n(C)n1,inactive
6,COc1ccc(S(=O)(=O)N2C[C@H](O)COC[C@@H]3O[C@@H](CC(=O)NCCCN(C)C)CC[C@H]32)cc1,inactive
7,C[C@@H]1CN([C@@H](C)CO)C(=O)c2cc(NC(=O)CCN3CCOCC3)ccc2O[C@H]1CN(C)C(=O)Nc1ccccc1,inactive
8,Cc1noc(C)c1NC(=O)Nc1ccc2c(c1)CC(=O)N([C@@H](C)CO)C[C@H](C)[C@H](CN(C)C(=O)NC(C)C)O2,inactive
9,CC(C)NC(=O)N(C)C[C@H]1Oc2ccc(NC(=O)NC3CCCCC3)cc2CC(=O)N([C@H](C)CO)C[C@H]1C,inactive
10,COc1ccc2c3c(n(c2c1)C)[C@@H](CO)N(C[C@]13CCN(CC1)C(=O)c1ccccn1)C(=O)c1ccccn1,inactive
11,CC(C)=CCCC1(C)C=Cc2c(O)c3c(c(CC=C(C)C)c2O1)OC12C(=CCCC1C(C)(C)OC2(CC=C(C)C(=O)O)C(=O)O)C3=O (configuration not stated),active
12,C[C@H](CO)N1C[C@H](C)[C@H](CN(C)C(=O)Nc2ccccc2)Oc2c(NS(C)(=O)=O)cccc2C1=O,inactive
13,CC(C)NC(=O)Nc1ccc2c(c1)C(=O)N([C@H](C)CO)C[C@H](C)[C@@H](CN(C)Cc1ccc(Cl)c(Cl)c1)OCCCC[C@@H](C)O2,inactive
14,C[C@@H]1CCCCO[C@@H](CN(C)S(C)(=O)=O)[C@@H](C)CN([C@@H](C)CO)C(=O)c2cc(NS(=O)(=O)c3ccccc3)ccc2O1,inactive
15,COc1ccc(NC(=O)N(C)C[C@H]2OCCCC[C@H](C)Oc3ccc(NC(=O)NC(C)C)cc3C(=O)N([C@H](C)CO)C[C@@H]2C)cc1,inactive
16,NCCN1CCO[C@@H](CC(=O)Nc2cc(Cl)cc(Cl)c2)C1=O,inactive
17,N#CC1CC2CC2N1C(=O)C(N)C12CC3CC(CC(O)(C3)C1)C2 (configuration not stated),inactive
18,COc1ccc2c3c(n(c2c1)C)[C@H](CO)N(Cc1cc(cc(c1)OC)OC)C[C@]13CN(C1)C(=O)NC(C)C,inactive
19,C[C@H]1CCCCO[C@H](CN(C)C(=O)Cc2ccccc2)[C@@H](C)CN([C@@H](C)CO)C(=O)c2cc(NC(=O)Nc3ccc(F)cc3)ccc2O1,inactive
20,C[C@H]1CN([C@@H](C)CO)C(=O)Cc2cc(NC(=O)C3CC3)ccc2O[C@H]1CN(C)C(=O)Nc1ccccc1,inactive
21,C[C@H]1CN([C@@H](C)CO)C(=O)Cc2cc(NC(=O)Cn3cnnn3)ccc2O[C@H]1CN(C)S(=O)(=O)c1ccc(Cl)cc1,inactive
22,O=C(Cn1cc(COc2ccc(-n3cccc3)cc2)nn1)NS(=O)(=O)c1ccccc1C(F)(F)F,inactive
23,C[C@H]1CN([C@@H](C)CO)C(=O)Cc2cc(NC(=O)Nc3cccc4ccccc34)ccc2O[C@H]1CN(C)Cc1ccc(C(=O)Nc2ccccc2N)cc1,inactive
24,CN(C)C(=O)C[C@@H]1CC[C@H]2[C@@H](COC[C@@H](O)CN2S(=O)(=O)c2ccccc2)O1,inactive
25,COC(=O)c1c2oc(c1C(=O)OC)C(=O)N[C@H](Cc1ccccc1)Cn1cc(nn1)[C@H](Cc1ccccc1)NC(=O)N[C@H](CO)CC2,inactive
26,C[C@@H]1CCCCO[C@@H](CN(C)CC2CCCCC2)[C@H](C)CN([C@@H](C)CO)C(=O)c2cc(NC(=O)Nc3ccc(F)cc3)ccc2O1,inactive
27,C[C@H](CO)N1C[C@H](C)[C@@H](CN(C)Cc2ccc3c(c2)OCO3)Oc2ccc(NC(=O)CCN3CCOCC3)cc2CC1=O,inactive
